Assay results published in PubChem BioAssay AID504332 (National Center for Advancing Translational Sciences (NCATS), 2011).
Hit rate of the full screen: of about 350,000 compounds, about 31,000 (8.9%) were called active. The shares of active, inactive and inconclusive entries below differ from those in the screen. Calls come from the whole dose curve; as a rule, active = well fitted inhibition curve with a large enough effect; inconclusive = small, poorly fitted or top-dose-only effect; inactive = no such curve, though single readings can be large or run the other way. A potency beside an inconclusive call is a rough fit, not a confirmed value.

target: Histone-lysine N-methyltransferase EHMT2 (Homo sapiens) (UniProt Q96KQ7); assay: qHTS Assay for Inhibitors of Histone Lysine Methyltransferase G9a; settings: G9a H3K9 monomethylation, AlphaScreen, 2 h; activity, negative = inhibition: at 59 µM (top of the series) unless noted; note: nearly all actives have a fitted effect of over 75% in size
Procedure, shortened: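 Chemiluminescent proximity detection of H3K9 monomethylation, read after 10 min bead incubation in the dark. Reaction: 20 nM G9a, 500 nM biotin-H3K9 peptide, 20 uM SAM cofactor, 2 h, room temperature, following 15 min enzyme-compound preincubation.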
% is set by controls: 0 for no effect and ±100 for the full control effect; potency is the fitted concentration of half-maximal effect; tags give direction and shape of the fitted curve.

Chain of UniProt Q96KQ7 (Q96KQ7 whole entry, looked up): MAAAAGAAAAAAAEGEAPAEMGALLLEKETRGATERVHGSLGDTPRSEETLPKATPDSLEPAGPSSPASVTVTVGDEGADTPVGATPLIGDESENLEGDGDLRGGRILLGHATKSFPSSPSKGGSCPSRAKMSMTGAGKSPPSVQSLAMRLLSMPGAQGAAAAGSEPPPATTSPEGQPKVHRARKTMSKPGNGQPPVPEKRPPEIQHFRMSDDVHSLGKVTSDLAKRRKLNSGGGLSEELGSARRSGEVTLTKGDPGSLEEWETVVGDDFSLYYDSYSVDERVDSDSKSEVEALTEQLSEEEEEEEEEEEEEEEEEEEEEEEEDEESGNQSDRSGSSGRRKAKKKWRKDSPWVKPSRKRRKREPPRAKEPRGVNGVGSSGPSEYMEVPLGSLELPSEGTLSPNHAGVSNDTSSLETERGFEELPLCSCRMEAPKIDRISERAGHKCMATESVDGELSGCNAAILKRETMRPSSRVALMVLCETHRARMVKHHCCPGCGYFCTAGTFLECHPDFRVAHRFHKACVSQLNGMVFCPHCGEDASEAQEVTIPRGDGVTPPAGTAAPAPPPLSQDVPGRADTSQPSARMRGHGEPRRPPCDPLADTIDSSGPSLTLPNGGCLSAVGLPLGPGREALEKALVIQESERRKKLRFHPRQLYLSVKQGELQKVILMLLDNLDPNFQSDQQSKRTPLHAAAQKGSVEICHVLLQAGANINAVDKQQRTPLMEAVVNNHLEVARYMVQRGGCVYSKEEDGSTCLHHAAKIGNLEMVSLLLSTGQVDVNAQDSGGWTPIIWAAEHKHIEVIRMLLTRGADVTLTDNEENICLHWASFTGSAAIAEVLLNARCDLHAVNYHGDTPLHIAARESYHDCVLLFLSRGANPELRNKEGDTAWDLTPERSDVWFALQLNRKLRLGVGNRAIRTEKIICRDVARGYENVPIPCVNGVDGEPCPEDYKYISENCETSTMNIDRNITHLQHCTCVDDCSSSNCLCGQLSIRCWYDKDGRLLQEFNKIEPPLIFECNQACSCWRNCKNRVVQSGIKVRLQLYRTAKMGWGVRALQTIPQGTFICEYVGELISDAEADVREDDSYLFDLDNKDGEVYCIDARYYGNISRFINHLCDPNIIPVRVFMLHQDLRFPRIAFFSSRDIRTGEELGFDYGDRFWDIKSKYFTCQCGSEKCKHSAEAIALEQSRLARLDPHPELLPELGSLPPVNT

Row | SMILES | Potency | activity, negative = inhibition
1 | Cc1cccc(-n2c(CNC(=O)c3ccc(S(=O)(=O)N4CCCCC4)cc3)n[nH]c2=S)c1 | active: 7.08 µM | 
2 | CCOC(=O)Cc1csc(NC(=O)COc2ccc(C)cc2)n1 | inconclusive: 89.1 µM [inhibitor, partial curve, poor fit] | 
3 | Cc1n(CC(O)COC2CCCCC2)c2ccccc2[n+]1C (configuration not stated) | inconclusive: 2 µM [inhibitor, full curve, poor fit] | 
4 | COc1ncnc2c1N=C1CC(C)(C)CC(N)=C1S2 | active: 3.16 µM | 
5 | O=c1[nH][nH]cc1C=NCc1cccnc1 | inconclusive: 31.6 µM [inhibitor, full curve] | 
6 | CCN(CC(=O)Nc1cc(Cl)ccc1C)C(=O)CCc1nc2ccccc2c(=O)[nH]1 | inconclusive: 39.8 µM [inhibitor, single point] | 
7 | C=CCNc1cc(N2CCCC2)ccc1[N+](=O)[O-] | inconclusive: 35.5 µM [inhibitor, partial curve, poor fit] | 
8 | CCOCCCNC(=O)c1ccc2c(=O)n(Cc3ccc4c(c3)OCO4)c(=S)[nH]c2c1 | inconclusive: 28.2 µM [inhibitor, partial curve, poor fit] | 
9 | CC1(OC(=O)C2CCCC2)C(=O)C=C2C=C(c3ccsc3)N(CCc3c[nH]c4ccccc34)C=C2C1=O (configuration not stated) |  | inactive: -42.2%
10 | C=CCOc1cccc(C2C(C(=O)c3ccc(C)o3)=C(O)C(=O)N2Cc2ccncc2)c1 (configuration not stated) |  | inconclusive: -91.4% [inhibitor]
11 | N#Cc1cccn1-c1nccc(-c2cccs2)n1 |  | inactive: 113% [at 102 µM]
12 | CC(C)c1ccc2occ(-c3nn[nH]n3)c(=O)c2c1 | inconclusive: 39.8 µM [inhibitor, single point] | 
13 | O=S(=O)(Nc1ccc(-n2cccc2)cc1)c1ccc(Cl)cc1Cl | inconclusive: 28.2 µM [inhibitor, single point] | 
14 | Cc1cc(Cl)ccc1NC(=O)CCC(=O)N/N=C/c1cc([N+](=O)[O-])ccc1O |  | inactive: -0.682% [at 102 µM]
15 | CCc1ccc(NC(=S)Nn2cnnc2)cc1 | active: 7.94 µM | 
16 | COc1ccc2cc3cc(C(=O)NCc4ccco4)oc3nc2c1 | inconclusive: 70.8 µM [inhibitor, single point] | 
17 | O=C(NCc1ccc(F)cc1)C1CCCN(C(=O)Nc2ccc(F)cc2)C1 (configuration not stated) |  | inactive: 17.1% [at 102 µM]
18 | Cn1c(=O)c2c(nc3sccn32)n(C)c1=O | inconclusive: 22.4 µM [inhibitor, single point] | 
19 | CCOC(=O)c1c(/N=C/c2ccc(C)cc2O)sc2c1CCC2 | active: 44.7 µM | 
20 | O=C1c2cccnc2C(Nc2ccc(F)c(Cl)c2)N1Cc1cccs1 (configuration not stated) | active: 50.1 µM | 
21 | CC(C)Oc1ccc(C(=O)NC(=S)Nc2ccc(CN3CCOCC3)cc2)cc1 | inconclusive: 2 µM [inhibitor, full curve] | 
22 | O=C(NC1C=CS(=O)(=O)C1)c1ccccc1 (configuration not stated) |  | inactive: 5.97% [at 102 µM]
23 | COc1ccc(CNc2ncnc3c2c(-c2ccccc2)cn3-c2ccc(C)c(Cl)c2)cc1 |  | inactive: -4.33%
24 | Cn1nnnc1SCCNCC#Cc1ccccc1 | inconclusive: 56.2 µM [inhibitor, partial curve, poor fit] | 

Row | SMILES | Potency | activity, negative = inhibition
25 | CC(=O)Nc1ccc(S(=O)(=O)NCc2ccc(C(=O)NCCN3CCCCCC3)cc2)cc1 | inconclusive: 35.5 µM [inhibitor, single point] | 
26 | CN(C)c1ccc(C(CNC(=O)c2ccc(C#N)cc2)c2c[nH]c3ccccc23)cc1 (configuration not stated) | active: 10 µM | 
27 | c1coc(-c2ccnc3ncnn23)c1 |  | inactive: 6.43% [at 102 µM]
28 | CCOC(=O)COc1cc(-n2c(=S)[nH]c3cc(OC)c(OC)cc3c2=O)c(Cl)cc1Cl |  | inactive: -1.86% [at 102 µM]
29 | CCN(c1ccccc1)S(=O)(=O)c1cc(CN2C(=O)c3cccnc3C2=O)ccc1OC |  | inactive: -10.7% [at 102 µM]
30 | O=C(COC(=O)c1ccc[nH]c1=O)NC1CCCC1 | inconclusive: 89.1 µM [inhibitor, partial curve, poor fit] | 
31 | O=C(Nc1nnc(CCOCCOCCc2nnc(NC(=O)c3ccco3)s2)s1)c1ccco1 | active: 14.1 µM | 
32 | Cc1ccc2nc(SCC(=O)OCc3ccccc3)nc(=O)n2c1 |  | inactive: -34.6% [at 102 µM]
33 | CCOC(=O)N1CCC(N2C(=O)c3ccccc3C2Nc2ccc(C)cc2)CC1 (configuration not stated) | inconclusive: 89.1 µM [inhibitor, single point] | 
34 | Cc1cccc(NC(=O)COC(=O)c2cccs2)c1C |  | inactive: 27.3%
35 | CNc1cccc2c1C(=O)c1ccccc1C2=O | active: 8.91 µM | 
36 | CC(C)c1ccc(/C=C/C(=O)Nc2nc3ccc([N+](=O)[O-])cc3s2)cc1 |  | inactive: 21.1% [at 0.501 µM]
37 | CS(=O)(=O)N(Cc1ccccc1)c1ccc(C(=O)Nc2ccc(C(N)=O)cc2)cc1 | inconclusive: 89.1 µM [inhibitor, single point] | 
38 | COc1ccc(OC)c(-n2c(-c3cc(-c4ccccc4)n[nH]3)n[nH]c2=S)c1 | active: 1.58 µM | 
39 | c1ccc(Nc2c3c(nc4ncnn24)CCC3)cc1 | inconclusive: 89.1 µM [inhibitor, single point] | 
40 | O=C(NCc1ccco1)c1ccc2nc3sc4c(c3c(=O)n2c1)CCCC4 | inconclusive: 39.8 µM [inhibitor, partial curve, poor fit] | 
41 | O=S(=O)(Nc1ccc(-c2cn3c(n2)SCC3)cc1)c1ccccc1F | inconclusive: 79.4 µM [inhibitor, single point] | 
42 | Cc1nn(Cc2cccc(C(=O)NCC(C)C)c2)c(C)c1Br | inconclusive: 39.8 µM [inhibitor, single point] | 
43 | CC(C)N(CCO)Cc1nc(C(c2ccccc2)c2ccccc2)no1 | inconclusive: 70.8 µM [inhibitor, partial curve, poor fit] | 
44 | Cc1c(C(=O)N2CCC(C)CC2)sc2ncn(CC(=O)N3CCC(C)CC3)c(=O)c12 | inconclusive: 79.4 µM [inhibitor, partial curve, poor fit] | 
45 | Cc1nc2cc(N=NC3=C(O)CCCC3=O)ccc2s1 | inconclusive: 12.6 µM [inhibitor, partial curve, poor fit] | 
46 | Cc1cccc(C(=O)Oc2csc(=S)n2C(=O)c2cccc(C)c2)c1 | active: 1.58 µM | 
47 | Cc1ccccc1C(OCCN(C(C)C)C(C)C)c1ccccc1 (configuration not stated) | active: 28.2 µM | 
48 | CCn1cc(C(=O)N2CC=C(c3ccccc3)CC2)c(=O)c2ccc(C)nc21 | active: 79.4 µM | 

Row | SMILES | Potency | activity, negative = inhibition
49 | CCN(CC)N=Nc1ccc(S(=O)(=O)N2CCSC2C(=O)O)cc1 (configuration not stated) |  | inactive: 9.82% [at 102 µM]
50 | CC(C)CC(=O)Nc1ccc(C(=O)Cn2c(=O)oc3ccccc32)cc1 |  | inactive: -4.43% [at 102 µM]
51 | Cc1cccc(C)c1OCC(=O)N=Nc1c(O)[nH]c2ccc(Br)cc12 |  | inactive: -38%
52 | Cc1ccc(C)c(Cn2c(SCC(=O)NCc3ccccc3)nc3ccccc32)c1 |  | inactive: -2.34% [at 12.7 µM]
53 | CCOC(=O)C1(CCCc2ccccc2)CCN(S(=O)(=O)N(C)C)CC1 |  | inactive: 78.9% [at 102 µM]
54 | Cc1ccc(C)c(N2CCN(C(=O)Cn3cnc4nc5c(cc4c3=O)CCCC5)CC2)c1 | inconclusive: 0.794 µM [inhibitor, partial curve, poor fit] | 
55 | Cc1cc(-c2csc(N)n2)c(C)n1C | active: 10 µM | 
56 | CCCn1c(=N)c(C(=O)NC2CCCCC2)cc2c(=O)n3cc(C)ccc3nc21 |  | inactive: -32.4%
57 | CCOc1cc(/C=C2\C(=O)N(c3nc(-c4ccc(Br)cc4)cs3)N=C2c2ccccc2)ccc1O | inconclusive: 39.8 µM [inhibitor, single point] | 
58 | NC(=O)CC(NC(=O)c1ccccc1)c1ccc(NC2CCC2)c([N+](=O)[O-])c1 (configuration not stated) |  | inconclusive: -69.5% [inhibitor]
59 | CCOC(=O)Cc1nnc(NC(=O)C(CC)Sc2nncn2C)s1 (configuration not stated) |  | inactive: 8.56%
60 | CCN(c1ccccc1)S(=O)(=O)c1cc(C(=O)OC2CCOC2=O)ccc1C (configuration not stated) | inconclusive: 7.08 µM [inhibitor, single point] | 
61 | COc1cc(-c2nnc(NC(=O)C3=COCCO3)o2)cc(OC)c1OC |  | inconclusive: -62% [inhibitor] [at 2.33 µM]
62 | C=CCn1c(-c2cccc3ccccc23)n[nH]c1=S | inconclusive: 1.41 µM [inhibitor, full curve, poor fit] | 
63 | CCOC(=O)c1cc(-c2ccccc2)n(-c2cccc(C(=O)NC(C)(C)C)c2)c1C | inconclusive: 11.2 µM [inhibitor, partial curve, poor fit] | 
64 | COc1ccc(OC)c(C2=NS(=O)(=O)N(C)C(C(=O)N3CCC4(CC3)OCCO4)=C2)c1 |  | inactive: -1.32% [at 102 µM]
65 | COc1cc(NC(=O)c2cccc(COCC(F)(F)C(F)F)c2)cc(OC)c1OC |  | inactive: -6.51% [at 102 µM]
66 | COCCN(C(=O)CSCc1ccc(C)cc1)c1c(N)n(CC(C)C)c(=O)[nH]c1=O |  | inactive: 19% [at 12.7 µM]
67 | c1nc(N2CCOCC2)c2cc(-c3ccoc3)ccc2n1 |  | inactive: 3.46% [at 0.501 µM]
68 | Cc1ccc(C)c(N2CCN(C(c3ccccc3)c3nnc(-c4ccccc4)o3)CC2)c1 (configuration not stated) | inconclusive: 39.8 µM [inhibitor, single point] | 
69 | CCN1CCc2c(sc(-n3cccc3)c2C(CCC(C)C)NC(=O)NCCC(=O)OC)C1 (configuration not stated) | inconclusive: 10 µM [inhibitor, partial curve, poor fit] | 
70 | C#CCOCCOCCOCCNc1nc(N2CCN(C(=O)[C@H]([C@@H](C)CC)n3cc(CCCN=C(N)N)nn3)CC2)nc(N2CCN(C(=O)[C@H](CCCCN)n3cc(CCCC)nn3)CC2)n1 | inconclusive: 50.1 µM [inhibitor, partial curve, poor fit] | 
71 | COc1ccc(-n2cc(-c3ccccc3)c3c(N4CCOCC4)ncnc32)cc1 | inconclusive: 28.2 µM [inhibitor, full curve] | 
72 | CCC(=O)N(CCc1ccccc1C)Cc1cc2cc3c(cc2[nH]c1=O)OCO3 | inconclusive: 0.708 µM [inhibitor, full curve, poor fit] | 
